About 5,800 (2.1%) of roughly 270,000 compounds were called active. Inconclusive results (about 16%) are left out. Calls follow the shape of the dose curve; as a rule, active = well fitted inhibition curve with a large enough effect; inconclusive = small, poorly fitted or top-dose-only effect; inactive = flat fitted curve, though single readings scatter. The list shows a part of the results, in another mix than the full data. Some structures have more than one record in an assay (separate samples or runs), and their calls can disagree.
% is scaled to controls: 0 for no effect and ±100 for the full control effect; potency is read from the fitted curve at half-maximal effect.

This assay has as its target Microtubule-associated protein tau (Homo sapiens) (UniProt P10636). Kind of assay: qHTS for Inhibitors of Tau Fibril Formation, Thioflavin T Binding. Also: nearly all actives have a fitted effect of over 55% in size. The following applies: recombinant tau K18 P301L (four-repeat tau fragment), heparin-induced fibrillization, ThT fluorescence; series mostly up to 57.4 µM; activity, negative = inhibition: at the top concentration. A digest of the protocol: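 Heparin-induced fibrillization of the P301L-mutant K18 repeat-domain fragment of human tau was followed by ThT binding in quantitative high-throughput format.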
Sequence of UniProt P10636 (P10636 whole entry, looked up, the tested form may be a part): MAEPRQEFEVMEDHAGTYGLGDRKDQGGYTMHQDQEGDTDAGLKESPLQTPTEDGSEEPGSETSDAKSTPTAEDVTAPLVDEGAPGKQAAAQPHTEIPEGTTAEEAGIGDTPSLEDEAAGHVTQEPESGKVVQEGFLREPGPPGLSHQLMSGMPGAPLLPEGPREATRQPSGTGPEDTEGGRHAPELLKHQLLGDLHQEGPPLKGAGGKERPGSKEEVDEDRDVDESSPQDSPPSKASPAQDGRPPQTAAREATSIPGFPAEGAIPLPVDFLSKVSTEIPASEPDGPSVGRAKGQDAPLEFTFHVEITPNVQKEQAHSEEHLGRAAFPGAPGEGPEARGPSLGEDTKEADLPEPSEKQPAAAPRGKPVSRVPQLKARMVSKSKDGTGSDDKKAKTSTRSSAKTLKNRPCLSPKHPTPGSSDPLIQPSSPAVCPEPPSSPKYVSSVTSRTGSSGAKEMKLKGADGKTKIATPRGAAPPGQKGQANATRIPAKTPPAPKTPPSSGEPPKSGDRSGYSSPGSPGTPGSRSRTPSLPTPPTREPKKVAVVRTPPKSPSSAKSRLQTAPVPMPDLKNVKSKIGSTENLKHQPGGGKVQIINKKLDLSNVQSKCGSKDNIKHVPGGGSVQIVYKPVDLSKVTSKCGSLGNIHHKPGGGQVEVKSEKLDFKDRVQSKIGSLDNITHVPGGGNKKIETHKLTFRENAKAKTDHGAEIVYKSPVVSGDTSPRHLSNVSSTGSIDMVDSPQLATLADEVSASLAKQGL
For orientation: In qHTS, concentration-response curves come from the screen itself.
Consider `CN(C)C1C(=O)C(C(N)=O)=C(O)[C@@]2(O)C(=O)C3=C(O)c4c(O)ccc(Cl)c4C(O)[C@H]3C[C@@H]12` (some centres undefined), for which the “activity, negative = inhibition” value was inactive: -5.89%.

As to `Cc1ccc2oc(=O)c3cnn(CC(=O)N4CCN(c5ccccc5)CC4)c3c2c1`, the “activity, negative = inhibition” value is inactive: -15.4%.

With `CC(C)=CCC/C(C)=C/CC/C(C)=C/CSCC(=O)O`, the Potency result was “inactive”.

As to `Cc1ccc2[nH]c(C)c(/C=N/Nc3nc4ccccc4s3)c2c1`, the Potency is active: 14.1 µM.

On to `C[C@@H]1C=C[C@](Cc2ccccc2)(C(=O)NCCc2c[nH]c3ccccc23)N1C(=O)c1ccccc1`, for which the “activity, negative = inhibition” value is inactive: -14.3%.

`NC(=O)C1=C[C@H](c2csc3ccccc23)C[C@H](OCc2ccc(CO)cc2)O1`: the “activity, negative = inhibition” value was inactive: -8.4%.

Take `O=C1N/C(=N\S(=O)(=O)Cc2ccccc2)S/C1=C/c1cc([N+](=O)[O-])ccc1O`: the Potency is active: 5.01 µM.

For the compound `CC(/C=C/c1cccc(Oc2ccc(F)cc2)c1)N(O)C(N)=O` (centres undefined), the “activity, negative = inhibition” value was inactive: -21.1%.

Take `O=C1OCCN1/N=C/c1ccc([N+](=O)[O-])o1`: the “activity, negative = inhibition” value is inactive: -13.8%.

`O=C(NNc1c2ccccc2nc2ccccc12)c1ccccc1O`: the Potency is active: 2.24 µM.

`Nc1nc(-c2ccccc2)c(N=Nc2ccccc2Cl)s1`: the Potency was active: 5.01 µM.

For `CCOC(=O)/C(C#N)=C/C1=C(N2CCOCC2)CC(C)(C)OC1`, the “activity, negative = inhibition” value is inactive: -16.1%.

As for `COc1ccc2nc(Nc3sc4c(c3C(N)=O)CCCC4)sc2c1`, the Potency is active: 7.08 µM.

As for `Cc1cc(C)c[n+](-c2nc3ccccc3nc2C(=C=[N-])C#N)c1`, the “activity, negative = inhibition” value is inactive: -4.67%.

For `O=[N+]([O-])c1cccc2cn[nH]c12`, the Potency entry is “inactive”.

With `Cc1ccc(C(=O)Nc2ccc(N3CCCC3)cc2)c(C)c1`, the Potency was active: 14.1 µM.

With `CN1C=CC=C/C1=C1/SC(=S)N(Cc2ccccc2)C1=O`, the “activity, negative = inhibition” value is inactive: 6.2%.

Regarding `Cn1c(SCC(=O)N/N=C/C=C\c2ccco2)nc2ccccc21`, the “activity, negative = inhibition” value is inactive: -2.13%.

For `O=C(/C=C/c1ccco1)NC(=S)Nc1ccc(Cl)cn1`, the Potency was active: 22.4 µM.

With `Cc1c(N=C2C=CC(=O)c3ccccc32)c(=O)n(-c2ccccc2)n1C`, the Potency is active: 2.24 µM.

As to `COc1ccc(CN2C=C3C(=O)C(C)(OC(=O)C4CCCC4)C(=O)C=C3C=C2c2ccsc2)cc1` (centres undefined), the activity, negative = inhibition was inactive: -8.5% [at 11.5 µM].

Consider `O=C1OCCN1C(=O)[C@H]1[C@H](c2ccc(F)cc2)C(c2ccc(F)cc2)=NN1c1ccc(Br)cc1`, for which the “activity, negative = inhibition” value was inactive: 1.44%.

As for `CNC(=O)c1cc(Nc2nnc(-c3ccc(O)cc3)c3ccccc23)ccc1OC`, the “activity, negative = inhibition” value is inactive: -10%.

For the compound `Cc1ccc(-c2noc(CSc3nnc(Cc4ccccc4)n3-c3cccc(C)c3)n2)cc1`, the “activity, negative = inhibition” value was inactive: -15.3%.

For the compound `Cc1cncn1CCc1nc2c3ccccc3nc(SCC(=O)Nc3cccc(Cl)c3)n2n1`, the “activity, negative = inhibition” value was inactive: 1.11%.

As to `CCCCCc1c2c(cc(O)c1C(=O)O)OC(=O)c1c(cc(OC)cc1C(=O)CCCC)O2`, the “activity, negative = inhibition” value is inactive: -7.2%.

On to `N#C/C(=C\c1coc2ccc(O)cc2c1=O)C(=O)Nc1nc2ccccc2s1`, for which the Potency was active: 17.8 µM.

As for `Cc1cc(C)c2[nH]c(=O)c(C(c3nnnn3CC3CCCO3)N3CCCC(C)C3)cc2c1` (centres undefined), the Potency is active: 31.6 µM.

With `OCCN1CCN(CC/C=C2/c3ccccc3Sc3ccc(C(F)(F)F)cc32)CC1`, the “activity, negative = inhibition” value was inactive: -15.6%.

As for `N#C/C(=C\C=C\c1ccccc1)C(=O)Nc1ccccc1`, the “activity, negative = inhibition” value was inactive: -7.86%.

With `CCN(CC)c1ccc(N2C(=O)/C(=C\c3cccs3)SC2=S)cc1`, the “activity, negative = inhibition” value was inactive: -15.9%.

`O=C(O)CN1C(=O)c2cccc3cccc(c23)C1=O`: the “activity, negative = inhibition” value was inactive: -0.32%.

As for `Cc1c(C(=O)N(Cc2ccc(N(C)C)cc2)C2CCS(=O)(=O)C2)oc2ccccc12` (centres undefined), the “activity, negative = inhibition” value is inactive: -7.63%.

`C=CCOC(=O)NC(c1ccc(F)c(F)c1)C(C(=O)COC)C(=O)OC` (centres undefined): the “activity, negative = inhibition” value was inactive: 3.51%.

Turning to `NNCCc1ccccc1`, the “activity, negative = inhibition” value is inactive: -16.3%.

For `CCO[C@@H]1OC(C(=O)NCc2ccccc2)=C[C@H](c2coc3ccccc3c2=O)[C@H]1CCCO`, the “activity, negative = inhibition” value was inactive: -2.33%.

Turning to `O=c1[nH]n2c(=O)c3c([nH]c2c1N=Nc1ccccc1)CCC3`, the Potency is active: 3.16 µM.

`O=C1Nc2ccc(Br)cc2/C1=C/C(=O)c1ccc2c(c1)OCO2`: the Potency was active: 25.1 µM.

For `COC(=O)[C@@H](N)CSC/C=C(\C)CC/C=C(\C)CCC=C(C)C`, the Potency entry is “inactive”.

As for `COc1ccc2c(c1OC)C(Cc1ccccc1)N1CCc3cc4c(cc3C1=C2)OCO4` (centres undefined), the Potency is active: 15.8 µM.

In the case of `Cc1cc(O)ccc1Nc1nc2ccccc2nc1Nc1ccc(O)cc1C`, the Potency is active: 14.1 µM.

Regarding `CCCCCCC(=O)Nc1nc(C)c(-c2csc(Nc3ccc(Cl)cc3)n2)s1`, the Potency is active: 5.01 µM.

As to `Cc1ccc(NC(=S)c2nc3ccccc3[nH]2)cc1`, the Potency is active: 7.94 µM.

On to `CCCCC1=CC2=CC(=O)C(C)(OC(=O)CC)C(=O)C2=CN1CCCCO` (centres undefined), for which the activity, negative = inhibition is inactive: 3.34% [at 11.5 µM].

As for `Nc1ccccc1C(=O)/C=C/c1ccc2c(c1)OCO2`, the “activity, negative = inhibition” value was inactive: 4.91%.

Take `Oc1ccc(C2CNCCc3c2cc(O)c(O)c3Cl)cc1` (centres undefined): the “activity, negative = inhibition” value is inactive: -18%.

As to `COc1ccc(N/C=C/C(=O)c2ccc3c(c2)OCO3)cc1OC`, the Potency is active: 5.01 µM.

As to `COC/C=C/C1=CC2=CC(=O)C(C)(OC(=O)c3cnc4ccccc4n3)C(=O)C2=CN1C(CO)CO` (centres undefined), the activity, negative = inhibition is inactive: -3.67% [at 11.5 µM].

Turning to `Cc1ccc(N/C=C/C(=O)c2sc(-c3ccccc3)nc2C)cc1`, the Potency is active: 2 µM.

Consider `CCC(C)OC(=O)C1=C(C)O[C@]23OC(N)=C(C#N)[C@]12C(=O)c1ccccc13` (some centres undefined), for which the “activity, negative = inhibition” value was inactive: -7.41%.

In the case of `C#CCNC(=O)C1=C[C@@H](c2cn(C(C)=O)c3ccccc23)C[C@@H](OCc2ccc(CO)cc2)O1`, the “activity, negative = inhibition” value is inactive: -11.4%.

For `Cc1ccc(N(CC2=NCCN2)c2cccc(O)c2)cc1`, the Potency result is “inactive”.

In the case of `Brc1ccc(C2=NC(Cc3ccccc3)CO2)cc1` (centres undefined), the “activity, negative = inhibition” value is inactive: -17.1%.

In the case of `O=C1c2ccccc2C(=O)C1c1ccccc1`, the “activity, negative = inhibition” value is inactive: -5.93%.

As to `COC(=O)/C=C1/S/C(=N/NC(=O)c2ccccc2)NC1=O`, the “activity, negative = inhibition” value is inactive: -12.6%.

`O=C(O)C(=O)/C(=C\c1ccc([N+](=O)[O-])cc1)c1ccc2ccccc2n1`: the Potency is active: 15.8 µM.

As to `Clc1ccccc1CSc1nnc(-c2ccco2)c(-c2ccco2)n1`, the Potency was active: 17.8 µM.

Take `C=C(C)[C@H]1CC=C(C)/C(=N/NC(=O)CNc2ccccc2OC)C1`: the “activity, negative = inhibition” value was inactive: -11.3%.

Consider `NC(=O)c1ccccc1O`, for which the “activity, negative = inhibition” value is inactive: -3.35%.

Turning to `CCOC(=O)N1CCC(=C2c3ccc(Cl)cc3CCc3cccnc32)CC1`, the “activity, negative = inhibition” value was inactive: -12.3%.

As for `COc1ccc(-c2coc3cc(O)ccc3c2=O)cc1`, the “activity, negative = inhibition” value was inactive: -19.3%.

With `CCCCC1=CC2=CC(=O)C(C)(OC(=O)CC)C(=O)C2=CN1c1ccc(OC)cc1` (centres undefined), the activity, negative = inhibition is inactive: 4.84% [at 11.5 µM].

Regarding `CCCCC1=CC2=CC(=O)C(C)(OC(=O)CC)C(=O)C2=CN1CCOC` (centres undefined), the activity, negative = inhibition is inactive: -0.8% [at 11.5 µM].

With `O=C(CSc1nc2c([nH]c3ccccc32)c(=O)n1-c1ccc(F)cc1)NCc1ccco1`, the “activity, negative = inhibition” value is inactive: -15.9%.
